Among all 150,000 compounds or so, about 540 (0.36%) showed an effect of 50% or more. This is one part of the list.
System: Plasmodium falciparum
Experiment: Primary screen in NF54 nanoGlo assay, in single point, at 2uM, 72h; a lower Z score goes with more inhibition
Type: functional, Erythrocyte
Conditions: timepoint 72 hour

SMILES	% Inhibition	Z score
COCCc1noc(Cn2ccc3ccn(CC4CC4)c3c2=O)n1	3%	-0.28
CCN(Cc1cnn(C)c1)C(=O)[C@H]1CCO[C@@H]1c1ccnn1C(C)C	2%	-0.3
CCn1cc(-c2nc(C)c(C(=O)NCc3cccc(F)c3)s2)c2cccnc21	-3%	0.49
Cc1ccc(CN2CCc3ncn(CC(=O)NCc4ccccc4)c(=O)c3C2)cc1	-6%	1.02
Cc1cnc(C)c(N2CC(c3ncc(C4CC4)cn3)C2)n1	-3%	0.52
Cc1nn(CC(F)F)cc1C(=O)NC[C@H]1CC(=O)N(C)[C@@H]1c1cnn(C)c1C	0%	0.01
O=C(Nc1nc(-c2ccc3c(c2)OCCO3)cs1)C1CCCC1	-1%	0.12
CC(C)Cc1nc(CNC(=O)c2cc(Cl)c[nH]2)no1	-7%	1.47
O=C1c2ccccc2CCc2cccnc21	-7%	1.02
Nc1ncnc(NC[C@H]2CCCS2(=O)=O)c1Cl	-5%	0.65
COc1cccc(-c2cc3c(c(OC)c2)OCCN(S(=O)(=O)c2ccc(F)c(F)c2)C3)n1	-5%	0.83
COCC(=O)N[C@H]1CO[C@H]2[C@@H]1OC[C@@H]2Nc1nccc(-c2ccc(OC)cc2)n1	-5%	0.87
CN1CCC[C@H](Cn2ncc3ccccc3c2=O)C1	1%	-0.2
CC(C)C[C@@H](CO)NS(=O)(=O)Cc1cccc(F)c1	2%	-0.26
Cc1cc(C)cc(N2CCN(C(=O)[C@H]3C[C@@H]3c3ccccc3)CC2=O)c1	-10%	1.86
CC[C@H]1C(=O)NCCN1C(=O)Nc1cc(-c2ccco2)ccc1F	-7%	1.03
C#CCN1C(=O)[C@@]2(CC(=O)Nc3c2c(C)nn3-c2ncnc3[nH]cnc23)c2cccc(Cl)c21	0%	-0.03
CCOC(=O)c1cc(CN[C@@H](C)c2ccc(N3CCCCC3)cc2)on1	-8%	0.82
O=C(NC[C@@H]1CCCN2CCCC[C@H]12)c1cccc(NC(=O)c2ccc3c(c2)OCO3)c1	-3%	0.38
Cc1nc[nH]c1CN1C[C@H]2CC[C@@H](C1)N(C(=O)c1cc(C(C)C)oc1C)C2	-5%	0.89
Cc1cccc(CN2CCC[C@H](C(=O)c3ccc4c5c(cccc35)CC4)C2)n1	58%	-11.5
Nc1c2c(-c3ccc(Cl)cc3)nc(NC3CC3)nc2nn1-c1ccc(Cl)cc1	-5%	0.5
O=C1CC[C@H](C(=O)NCC2(C3CC3)CC2)N1	-12%	1.29
O=C(c1cnc(N2CCC3CCCCC32)c(Cl)c1)N1CCOCC1 (centres undefined)	2%	-0.23
CCOC(=O)N1CCC(NC(N)=NCCc2ccccc2C)CC1	-8%	0.68
CC(C)n1nnnc1-c1ccccc1NC(=O)N1CCc2ccccc2[C@@H]1C	-1%	0.1

SMILES	% Inhibition	Z score
Cc1cc(Cl)c(NC(=O)N2CCC[C@H](CO)C2)c2cccnc12	-3%	0.49
C[C@H](NC(=O)CN1CCCN(C)CC1)C1=CCCCC1	-11%	1.69
NC(=O)[C@@H]1CCCN1C(=O)c1cnn2c1CCCC2	-11%	1.27
CC1(C)CN(C(=O)NC[C@H]2CCOC2)CCN1Cc1ccccc1	-4%	0.72
C[C@@H](c1cccc(-c2nccn2Cc2cccc(C(=O)O)c2)c1)N(C)C	-6%	0.75
COc1ccc(-c2cnnc(NCCCN3CCOCC3)n2)c(OC)c1	-4%	0.51
COc1ccccc1-c1cnn2c(-c3ccncc3)ccnc12	-4%	0.59
COCc1c(C(=O)N(C)CC(C)C)cnn1-c1nccc(-c2ccco2)n1	-2%	0.33
CC1CN(C(=O)c2cc(S(=O)(=O)N3CCCC3)c[nH]2)CC(C)O1 (centres undefined)	1%	-0.14
Cc1nc(C)c(CC(=O)N[C@@H]2CCC[C@H]2OCc2ccccc2)s1	-4%	0.64
CS(=O)(=O)N1CC(N2CC(F)(F)C[C@H]2C(=O)N2CCN(c3ccccc3F)CC2)C1	-13%	1.51
Cc1cc(C(=O)NC[C@](C)(O)c2ccc(-c3ccccc3)cc2)no1	-14%	2.34
O=C(NC[C@H]1CCCN(c2nnnn2-c2ccccc2)C1)c1cc(C(F)F)[nH]n1	-6%	1.19
CCOc1ccc(S(=O)(=O)[C@H]2CS(=O)(=O)C[C@@H]2N2CCCC2)cc1	3%	-0.41
O=C(NCC(O)C1CCOCC1)C1CC1C1CC1 (centres undefined)	4%	-0.6
Cc1cc(CNc2nc3c(c(=O)[nH]2)CCNC3)c(C(F)(F)F)o1	-6%	0.77
O=C(COc1ccc(Cl)cc1Br)NC(=O)CN1CCCC1=O	9%	-1.71
FC1(F)CC[C@H](CNc2nccs2)C1	-5%	0.99
C[C@@]1(C(=O)NC2CCCCC2)Cn2c(ccc2-c2ccccc2)C(=O)N1Cc1cccc(F)c1	-10%	1.29
Cc1ccc(CN2CCN(Cc3nc(C(=O)Nc4ccc(F)cc4)co3)CC2)cc1	-15%	2.37
CNC(=O)Cc1noc(-c2cnc(-c3ccc(F)c(F)c3)s2)n1	-6%	1.04
Cc1ccc(C[C@H](NC(=O)Nc2ccn(C)n2)c2cccnc2)cc1	-8%	0.75
Cc1ccc(-c2nc(C3CCCC3)n[nH]2)c(F)c1	-17%	1.6
Cc1c(CNC[C@@H](O)c2ccc(C(F)(F)F)cc2)cnn1C	3%	-0.46
CCn1cc(CN2CCC3(CC2)CN(CCC(C)C)C(=O)O3)c(C)n1	17%	-2.35
Cc1cccc(NC(=O)N2CCC3(CC2)C[C@@H](N(C)Cc2ccccc2)CCO3)c1	-2%	0.29

Reference: ChEMBL document CHEMBL4888484, “Replenishing the malaria drug discovery pipeline: Screening and hit evaluation of the MMV Hit Generation Library 1 (HGL1) against asexual blood stage Plasmodium falciparum ,using a nano luciferase reporter read-out” (2022)
